About 1,100 (0.39%) of roughly 280,000 compounds were called active. The inconclusive results got no clear call from the source; some entries with a clear call stand among them for comparison. Calls follow the shape of the dose curve; as a rule, active = well fitted inhibition curve with a large enough effect; inconclusive = small, poorly fitted or top-dose-only effect, or effect the other way; inactive = flat fitted curve, though single readings scatter. Potencies of inconclusive entries are left out as doubtful fits.
These molecules were tested against Microtubule-associated protein tau (Homo sapiens) (UniProt P10636) (assay: qHTS for Inhibitors of Tau Fibril Formation, Fluorescence Polarization). Details: K18 P301L tau heparin fibrillization, Alexa594 FP, 6 h; series mostly up to 57.7 µM; activity, negative = inhibition: at the top concentration.
In short: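 Human tau K18 […] P301L fragment, 15 uM unlabeled plus 0.24 uM Alexa 594-labeled tau (final), with compound and 20 uM heparin in 100 mM sodium acetate pH 7; 6 hr at 37 C, then Alexa 594 FP read.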
% is scaled to controls: 0 for no effect and ±100 for the full control effect; potency is read from the fitted curve at half-maximal effect; tags tell the direction and shape of the fitted curve.
Also: nearly all actives have a fitted effect of over 55% in size.

Chain of UniProt P10636 (P10636 whole entry, looked up, the tested form may be a part): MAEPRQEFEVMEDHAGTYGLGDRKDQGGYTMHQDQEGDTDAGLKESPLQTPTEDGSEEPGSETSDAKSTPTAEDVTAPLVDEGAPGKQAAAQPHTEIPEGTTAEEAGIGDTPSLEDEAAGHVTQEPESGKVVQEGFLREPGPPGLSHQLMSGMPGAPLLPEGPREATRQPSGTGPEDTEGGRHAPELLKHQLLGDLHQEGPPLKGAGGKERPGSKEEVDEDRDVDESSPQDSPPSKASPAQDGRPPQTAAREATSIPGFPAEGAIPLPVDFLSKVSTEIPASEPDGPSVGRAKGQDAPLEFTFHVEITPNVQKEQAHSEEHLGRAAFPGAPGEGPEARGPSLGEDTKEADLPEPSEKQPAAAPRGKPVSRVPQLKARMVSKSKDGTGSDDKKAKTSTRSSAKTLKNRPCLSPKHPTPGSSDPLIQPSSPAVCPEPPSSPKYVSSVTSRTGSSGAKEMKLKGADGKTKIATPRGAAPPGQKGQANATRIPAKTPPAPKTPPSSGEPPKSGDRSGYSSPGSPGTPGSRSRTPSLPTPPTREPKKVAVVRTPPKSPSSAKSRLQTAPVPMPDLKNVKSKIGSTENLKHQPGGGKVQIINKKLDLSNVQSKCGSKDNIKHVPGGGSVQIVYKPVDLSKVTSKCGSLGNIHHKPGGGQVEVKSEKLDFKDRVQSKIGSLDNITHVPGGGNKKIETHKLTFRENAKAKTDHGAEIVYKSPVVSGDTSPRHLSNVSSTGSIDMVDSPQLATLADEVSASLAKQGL

Question: Which Potency does the source give for `Brc1cccc(-c2nnn3c2nc(NC2CCCCC2)c2ccccc23)c1` here?
Answer: inconclusive [inhibitor, partial curve, poor fit]

Question: `O=C(c1ccc2c(c1)OCO2)[C@@H]1[C@@H]2C(=O)N(C3CCCCC3)C(=O)[C@@H]2C2c3ccccc3C=CN21` (stereo partly drawn) was tested. Which Potency did it give?
Answer: inconclusive [inhibitor, partial curve]

Question: How did the Potency turn out when `Cc1cccc(C)c1Nc1sc(C(=O)c2ccccc2)c(N)c1S(=O)(=O)c1ccccc1` was run?
Answer: inconclusive [inhibitor, single point]

Question: With `COc1ccc2nc3sc(C(=O)NCCc4ccc(Cl)cc4)cc3cc2c1` as the molecule, how does the “activity, negative = inhibition” value read?
Answer: inactive: -15.5%

Question: How did the Potency turn out when `O=C(Nc1ccc2oc(-c3ccc4ccccc4c3)nc2c1)c1cccs1` was run?
Answer: inconclusive [inhibitor, partial curve]

Question: How did the Potency turn out when `O=C(N/N=C/c1ccc(-c2ccc(S(=O)(=O)Nc3ncccn3)cc2)o1)c1cc2ccccc2cc1O` was run?
Answer: inconclusive [inhibitor, single point]

Question: `CC1CCCCN1CCNC(=O)c1ccc(Cn2c(SCc3ccccc3)nc3cccnc32)cc1` (stereo not drawn) was tested. Which “activity, negative = inhibition” value did it give?
Answer: inactive: 7.34%

Question: Which Potency does the source give for `O=C(COc1ccc(Cl)cc1)N1CCCCC1` here?
Answer: inconclusive [inhibitor, full curve, poor fit]

Question: With `CCS(=O)(=O)c1ncc(Cl)c(C(=O)Nc2ccc(S(=O)(=O)N(C)c3ccccc3)cc2)n1` as the molecule, how does the Potency read?
Answer: inconclusive [inhibitor, single point]

Question: How did the “activity, negative = inhibition” value turn out when `Cc1ccc(N(CC(=O)N/N=C/c2cccs2)S(C)(=O)=O)cc1` was run?
Answer: inactive: 7.46%

Question: For `CCOC(=O)Cc1csc(NC(=O)CSc2nc(C)cc(=O)[nH]2)n1`, which Potency is on record?
Answer: inconclusive [inhibitor, single point]

Question: How did the Potency turn out when `Cc1cc(C)c2cccc(NC(=S)NC(=O)c3ccccc3)c2n1` was run?
Answer: inconclusive [inhibitor, single point]

Question: For `O=C(CSc1ncnc2ccccc12)c1cccs1`, which Potency is on record?
Answer: inconclusive [inhibitor, single point]

Question: For `COc1ccc(/C=C2/SC(=O)N(CCC(=O)Nc3ccc(S(=O)(=O)Nc4nccs4)cc3)C2=O)cc1`, which Potency is on record?
Answer: inconclusive [inhibitor, partial curve]

Question: Which “activity, negative = inhibition” value does the source give for `CCn1c(O)c(N=NC(=O)Cn2ccc(C(F)(F)F)n2)c2ccccc21` here?
Answer: inactive: 3.45%

Question: With `CCOc1ccc(C(=O)Nc2ccc(-c3cc4ccccc4oc3=O)cc2)cc1Br` as the molecule, how does the Potency read?
Answer: inconclusive [inhibitor, partial curve]

Question: With `Cc1nn(CCC(=O)Nc2ccc(Cl)cc2)c(C)c1S(=O)(=O)N1CCCCC1` as the molecule, how does the Potency read?
Answer: inconclusive [inhibitor, single point]

Question: How did the Potency turn out when `Cc1cc(C)c(C#N)c(SCSCc2ccccc2)n1` was run?
Answer: inconclusive [inhibitor, full curve, poor fit]

Question: With `COc1ccc(-c2nc(/C=C3\C(C)=Nc4ccccc43)c(O)o2)cc1` as the molecule, how does the Potency read?
Answer: inconclusive [activator, full curve, poor fit]

Question: Which “activity, negative = inhibition” value does the source give for `CCn1c(C)nc2cc(C(=O)NNC(=S)Nc3ccc(Cl)cc3Cl)ccc21` here?
Answer: inactive: 6.82%

Question: For `O=C(Nc1nc2cc3c(cc2s1)OCCO3)c1ccncc1`, which Potency is on record?
Answer: inconclusive [activator, single point]

Question: `NC(=O)c1cc(Cc2ccccc2)sc1NC(=O)c1ccco1` was tested. Which Potency did it give?
Answer: inconclusive [inhibitor, single point]

Question: Which Potency does the source give for `O=C(COC(=O)CCc1c[nH]c(=O)[nH]1)Nc1cccc(Cl)c1` here?
Answer: inconclusive [inhibitor, partial curve]

Question: How did the “activity, negative = inhibition” value turn out when `Cc1cc2c(C)nc(N/N=C/c3ccc([N+](=O)[O-])cc3)nc2o1` was run?
Answer: inactive: 4.36%

Question: With `CC1CN(c2ccc(NC(=O)c3ccco3)cc2C(=O)O)CC(C)O1` (stereo not drawn) as the molecule, how does the Potency read?
Answer: inconclusive [activator, partial curve, poor fit]

Question: With `Cc1ccc(NC2=C(NCCO)C(=O)c3ccccc3C2=O)cc1` as the molecule, how does the Potency read?
Answer: inconclusive [inhibitor, single point]

Question: For `O=C(Cc1ccccc1)NCC(=O)OCC(=O)c1ccc([N+](=O)[O-])cc1`, which Potency is on record?
Answer: inconclusive [inhibitor, partial curve, poor fit]

Question: Which “activity, negative = inhibition” value does the source give for `Cc1nc2c3ccccc3nc(NNC(=O)CCC(=O)O)n2n1` here?
Answer: inactive: 4.55%

Question: Which Potency does the source give for `Cc1cc(C)cc(NC(=O)Nc2cc(S(=O)(=O)N(C)C)ccc2C)c1` here?
Answer: inconclusive [inhibitor, partial curve, poor fit]

Question: Which Potency does the source give for `NC(N)=NCCC[C@@H](N)C(=O)O` here?
Answer: inactive

Question: How did the “activity, negative = inhibition” value turn out when `O=c1c2cc(Cl)ccc2[nH]c(=S)n1Cc1cccs1` was run?
Answer: inactive: -7.7%

Question: How did the “activity, negative = inhibition” value turn out when `CCC(=O)NC1Cc2ccccc2C(c2ccccc2)C1` (stereo not drawn) was run?
Answer: inactive: -5.1%

Question: `O=C1C=CC2=C3c4cc(O)c(O)cc4C[C@]3(O)COC2=C1` was tested. Which Potency did it give?
Answer: inconclusive [inhibitor, full curve]

Question: For `CCOC(=O)C(NC(C)=O)(N1CCOCC1)C(F)(F)F` (stereo not drawn), which Potency is on record?
Answer: inconclusive [inhibitor, single point]

Question: For `C=CCn1c(C2CCCCC2)n[nH]c1=S`, which “activity, negative = inhibition” value is on record?
Answer: inactive: 6.7%

Question: With `CC1(C(=O)O)NCCc2cc(O)c(O)cc21` (stereo not drawn) as the molecule, how does the Potency read?
Answer: inconclusive [inhibitor, partial curve]

Question: How did the “activity, negative = inhibition” value turn out when `COc1cc(NC(=O)CSc2nc3ncccc3o2)cc(OC)c1` was run?
Answer: inactive: -7.36%

Question: With `O=C(COc1ccccc1)NCC(=O)N/N=C/c1ccc(O)cc1O` as the molecule, how does the Potency read?
Answer: inconclusive [activator, single point]

Question: `S=C(N/N=C/c1cccs1)NC1CC2CCC1C2` (stereo not drawn) was tested. Which “activity, negative = inhibition” value did it give?
Answer: inactive: 12.3%

Question: `COc1ccc(-c2cc(=O)[nH][nH]2)cc1OC` was tested. Which Potency did it give?
Answer: inconclusive [inhibitor, partial curve]

Question: For `COc1cc(/C=C/C(=O)O)cc(S(=O)(=O)NCc2ccc3c(c2)OCO3)c1OC`, which “activity, negative = inhibition” value is on record?
Answer: inactive: 2.43%

Question: For `COc1cccc(NC(=O)Cn2c(=O)n(CCC(=O)NCCc3ccc(Cl)cc3)c(=O)c3ccccc32)c1`, which Potency is on record?
Answer: inconclusive [inhibitor, partial curve]

Question: For `COc1ccc(Cn2cc3c(-c4ccc(F)cc4)nnc-3c3cc(OC)c(OC)cc32)cc1`, which Potency is on record?
Answer: inconclusive [inhibitor, single point]

Question: `CCc1ccc(CSc2nccn2-c2ccccc2)cc1` was tested. Which “activity, negative = inhibition” value did it give?
Answer: inactive: -10%

Question: With `CC(=O)Nc1cccc(-n2nnc(SCC(=O)Nc3ccc(F)c(Cl)c3)n2)c1` as the molecule, how does the Potency read?
Answer: inconclusive [inhibitor, single point]

Question: Which Potency does the source give for `O=C(CSCc1ccccc1Cl)NN1C(=O)c2ccccc2C1=O` here?
Answer: inconclusive [inhibitor, single point]

Question: With `Cc1ccc(NCc2n[nH]c(=S)n2Cc2ccccc2)cc1Cl` as the molecule, how does the Potency read?
Answer: inconclusive [activator, single point]

Question: How did the Potency turn out when `COc1ccc(-c2ccnc(SCC(=O)c3ccc(OC)c(OC)c3)n2)cc1` was run?
Answer: inconclusive [inhibitor, single point]

Question: With `Cc1ccc(CN2CCN(/N=C\C=C\c3ccccc3)CC2)cc1` as the molecule, how does the Potency read?
Answer: inconclusive [activator, single point]

Question: How did the “activity, negative = inhibition” value turn out when `CCN(CC)CCOC(=O)C1(c2ccccc2)CCOCC1` was run?
Answer: inactive: -5.33%

Question: `Cc1ccccc1OCc1nc2ccccc2c(=O)n1/N=C/c1cn[nH]c1-c1ccccc1` was tested. Which Potency did it give?
Answer: inconclusive [inhibitor, single point]

Question: `Cc1cc(OC(C)C(=O)Nc2cccc(-c3nc4ccccc4o3)c2)cc(C)c1Cl` (stereo not drawn) was tested. Which “activity, negative = inhibition” value did it give?
Answer: inactive: -5.21%

Question: `Cc1cc(C(=O)OCC(=O)c2ccc(Cl)c([N+](=O)[O-])c2)c2cccc(C)c2n1` was tested. Which “activity, negative = inhibition” value did it give?
Answer: inactive: -0.54%

Question: For `COc1ccc(-n2ncc3c(=O)n(CC(=O)Nc4ccc(S(=O)(=O)N5CCOCC5)cc4)cnc32)cc1`, which Potency is on record?
Answer: inconclusive [inhibitor, single point]

Question: How did the Potency turn out when `O=C(O)COc1ccccc1/C=N/Nc1ccc(S(=O)(=O)Nc2ccc(Cl)cc2)cc1[N+](=O)[O-]` was run?
Answer: inconclusive [activator, single point]

Question: With `C=CCNC(=O)c1ccc(C)cc1Cl` as the molecule, how does the “activity, negative = inhibition” value read?
Answer: inactive: -4.55%

Question: Which Potency does the source give for `COc1ccc(-n2nnnc2C2CCN(S(=O)(=O)c3ccc(NC(C)=O)cc3)CC2)cc1` here?
Answer: inconclusive [inhibitor, single point]

Question: With `CCOC(=O)Cc1csc(NC(=O)c2ccc(S(=O)(=O)N3CCOCC3)cc2)n1` as the molecule, how does the “activity, negative = inhibition” value read?
Answer: inactive: -3.45%

Question: How did the Potency turn out when `O=C(/C=C/c1c(Cl)cccc1Cl)n1cccn1` was run?
Answer: inconclusive [inhibitor, partial curve]

Question: Which Potency does the source give for `Cc1cccc(C)c1OCC(=O)N(Cc1ccc(N(C)C)cc1)C1CCS(=O)(=O)C1` (stereo not drawn) here?
Answer: inconclusive [activator, partial curve]

Question: Which “activity, negative = inhibition” value does the source give for `O=C(Cc1ccccc1)NNC(=S)NC(=O)c1cccs1` here?
Answer: inactive: 2.28%

Question: For `CCCn1nnc(NC(=S)NC(=O)/C=C/c2ccco2)n1`, which Potency is on record?
Answer: inconclusive [inhibitor, single point]

Question: `COc1ccc(NC(=O)Cc2cccc(F)c2)cc1S(=O)(=O)Nc1ccccc1Cl` was tested. Which Potency did it give?
Answer: inconclusive [inhibitor, single point]

Question: Which Potency does the source give for `CCc1nnc(NC(=O)C2c3ccccc3Oc3ccccc32)s1` here?
Answer: inconclusive [inhibitor, single point]

Question: Which Potency does the source give for `CCOc1ccc(S(=O)(=O)Nc2ccc(C(=O)NN)cc2)cc1` here?
Answer: inconclusive [inhibitor, partial curve]

Question: How did the Potency turn out when `Cc1ccc(C)c(NC(=O)C(Sc2nnc(-c3cccs3)o2)c2ccccc2)c1` (stereo not drawn) was run?
Answer: inconclusive [inhibitor, partial curve]

Question: How did the Potency turn out when `CCOC(=O)c1ccc(N2C(=O)c3n[nH]c(-c4ccco4)c3C2c2cccc(OC)c2)cc1` (stereo not drawn) was run?
Answer: inconclusive [inhibitor, partial curve, poor fit]

Question: Which Potency does the source give for `COC(=O)c1ccc2c(=O)n(CCCCCC(=O)NCCc3ccc(Cl)cc3)c(=O)[nH]c2c1` here?
Answer: inconclusive [inhibitor, partial curve]
